Whole data set: some 33,000 sequences, median “E-score (-0.5 to 0.5)” near -0.021, cut for the highest 2% near 0.32. The list shows a part of the results.
Target: T1, Zap1 (UniProt P47043)
T1 sequence: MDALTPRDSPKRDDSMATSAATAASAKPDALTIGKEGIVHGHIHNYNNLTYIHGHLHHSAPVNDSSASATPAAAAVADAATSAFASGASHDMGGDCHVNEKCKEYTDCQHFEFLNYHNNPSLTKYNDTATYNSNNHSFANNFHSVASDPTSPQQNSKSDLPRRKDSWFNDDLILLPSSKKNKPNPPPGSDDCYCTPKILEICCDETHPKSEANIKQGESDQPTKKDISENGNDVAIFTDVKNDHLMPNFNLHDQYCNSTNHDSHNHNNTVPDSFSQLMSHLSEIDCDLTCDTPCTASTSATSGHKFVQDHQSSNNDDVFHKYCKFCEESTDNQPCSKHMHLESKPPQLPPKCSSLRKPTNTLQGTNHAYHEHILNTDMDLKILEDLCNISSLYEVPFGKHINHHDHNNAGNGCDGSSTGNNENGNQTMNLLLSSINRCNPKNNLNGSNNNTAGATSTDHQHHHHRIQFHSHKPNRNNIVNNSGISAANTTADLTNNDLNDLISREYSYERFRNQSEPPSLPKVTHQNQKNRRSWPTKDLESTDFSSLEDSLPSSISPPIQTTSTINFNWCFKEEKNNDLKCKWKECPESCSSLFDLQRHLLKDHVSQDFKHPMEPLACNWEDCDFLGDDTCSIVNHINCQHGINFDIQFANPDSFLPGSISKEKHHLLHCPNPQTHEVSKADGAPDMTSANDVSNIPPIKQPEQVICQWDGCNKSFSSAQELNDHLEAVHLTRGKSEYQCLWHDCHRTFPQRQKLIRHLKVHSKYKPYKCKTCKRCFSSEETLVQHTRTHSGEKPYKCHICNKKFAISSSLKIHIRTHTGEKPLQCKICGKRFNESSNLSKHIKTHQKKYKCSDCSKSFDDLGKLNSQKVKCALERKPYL
Experiment: PBM E-score (8-mer binding enrichment) (E-score (-0.5 to 0.5)); higher = stronger / more preferred TF binding; most listed sequences are background and not binding sites
Conditions: protein concentration: 200 nM; construct: GST-full length
Protocol: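 Universal 'all 10-mer' protein binding microarrays (Agilent AMADID 015681) probed with GST-tagged S. cerevisiae TFs (full-length or DBD) made by in vitro transcription/translation (PURExpress), about 100-200 nM. Bound TF was detected with fluorescent anti-GST. Each ungapped 8-mer (which stands for itself and its reverse complement) is scored by the PBM enrichment score (E-score), a modified Wilcoxon-Mann-Whitney statistic from -0.5 to +0.5, computed with the Universal PBM Analysis Suite. Scale: above 0.35 generally sequence-specific binding.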

| Sequence | PBM E-score |
| --- | --- |
| CCCATGCA | -0.0459 |
| TCTATAAA | 0.166 |
| CATCTTAC | -0.152 |
| ACAACTAT | 0.204 |
| AGCATAGG | -0.184 |
| ATAGTCGA | 0.04 |
| CGGATATC | 0.0772 |
| ACACTAGA | 0.128 |
| ATCAAGAT | -0.111 |
| GGCCGATA | -0.0328 |
| AGGGCTTC | -0.0391 |
| ACAAGGGG | -0.128 |
| TACTTTAA | 0.00612 |
| ACCTATCG | 0.096 |
| ATGGCTTA | -0.0746 |
| TTCACGAA | -0.0117 |
| CATTCCGG | -0.0375 |
| CCAATATA | -0.204 |
| CAGGCCCC | -0.242 |
| GCCATTAC | 0.233 |
| GCTATAGC | -0.336 |
| AAGCTAGG | -0.279 |

| Sequence | PBM E-score |
| --- | --- |
| CAGCAATA | 0.0305 |
| CCCCAGTC | -0.237 |
| GCTTGTTA | 0.126 |
| GCCCTTTA | -0.0495 |
| ACCACCAT | 0.195 |
| AATAAGCT | -0.00782 |
| GATTTAAA | -0.0992 |
| CGTCTTGC | -0.0827 |
| GCCAGCAC | -0.171 |
| CGCACCCG | 0.0874 |
| TCGACGAA | -0.00492 |
| TCCGGAAA | -0.0642 |
| GTTAGGAA | 0.168 |
| ATGCCCGC | -0.0492 |
| CACATGAG | -0.145 |
| CGAGCGCA | -0.0559 |
| CAACTACC | 0.203 |
| ACTTAAAC | 0.122 |
| TAGACGCA | -0.184 |
| AGCGAGGA | -0.134 |
| CATACGGA | -0.169 |
| CATGAAAG | 0.0835 |

| Sequence | PBM E-score |
| --- | --- |
| CCGGGCGC | -0.315 |
| AGGGCAAA | 0.0585 |
| GCTGCAAC | -0.0782 |
| GCGCAAAC | -0.0236 |
| ATGTGTTC | 0.133 |
| CCGGGCGA | -0.141 |
| AGCGTCGC | -0.279 |
| ATGACACG | -0.109 |
| AAACCGAG | -0.135 |
| AAGCAGGG | -0.179 |
| AGGACGGA | -0.255 |
| GCATAATA | 0.171 |
| GGTGGGGA | 0.28 |
| AAACTGTA | 0.0773 |
| ACAATTTG | -0.158 |
| AGTGTAAT | -0.147 |
| AAACGGCG | -0.0555 |
| CACTAAAC | 0.155 |
| CTGTCCAC | -0.0437 |
| CCACGAGG | 0.3 |
| AAATATAA | 0.224 |
| ACTACAGC | -0.193 |

| Sequence | PBM E-score |
| --- | --- |
| AACACGCA | 0.00642 |
| CGTCTCCC | -0.218 |
| AGACTTGA | -0.0479 |
| GCATGCGC | -0.0204 |
| AGTACAAT | 0.101 |
| CATGCCCC | -0.212 |
| TGTTGGAA | 0.135 |
| GGCTCAAC | -0.116 |
| CCCTTACG | -0.0713 |
| CGTCTTAC | -0.00492 |
| CCGAAATC | -0.0593 |
| CATATCTA | -0.0118 |
| TGTGCAAA | -0.0563 |
| AGCGGGTA | 0.149 |
| ATCGCCTG | -0.251 |
| CGGGCGAG | -0.0126 |
| GCAGAGGC | -0.124 |
| AAATAACG | 0.042 |
| AGACGCAA | 0.0382 |
| GGGCAGAA | 0.0384 |
| GGATGTAA | 0.184 |
| CACTTTAG | -0.0914 |

| Sequence | PBM E-score |
| --- | --- |
| ATTGAGAC | 0.203 |
| GGATTCTA | -0.144 |
| CTCGTAGC | -0.0655 |
| ATCTGTTC | 0.0409 |
| ATATTTGC | 0.0299 |
| AGCAGATC | -0.0265 |
| ATCGCAGG | -0.00676 |
| GAGCGTGC | -0.173 |
| CTATTTTA | 0.0977 |
| ATCGTTAA | 0.0793 |
| CCAACAAG | 0.163 |
| GTAATGTA | 0.041 |
| AGTGGTCC | -0.0628 |
| CCTGGTAC | 0.154 |
| CGTTACAG | 0.0324 |
| GTTACACA | 0.186 |
| AGGGTTCA | 0.146 |
| ACTGTACT | -0.159 |
| ATCATGTC | -0.062 |
| ATAATAGG | 0.121 |
| CAGAGGGG | -0.159 |
| CTCTATTA | -0.0398 |

From the supplement of paper PMC3334620
